SMILES strings stand for the structures. The list shows a part of the results.

The results in this text go back to the antibiotic and cytotoxicity screens of Wong et al. (2023).

The subject of one test is HSkMC. Kind of test: cytotoxicity call (relative viability < 0.9). The note with it: 10 µM.
Another test concerns HepG2. Kind of test: cytotoxicity call (relative viability < 0.9). The note with it: 10 µM.
A further test has as its system S. aureus RN4220. Put plainly: growth inhibition call (relative growth <= 0.2). The note with it: 50 µM.

For the compound `COc1ccc(NC(=O)Nc2ccc3c(c2)C(=O)N([C@@H](C)CO)C[C@H](C)[C@@H](CN(C)S(=O)(=O)c2cccs2)OCCCC[C@@H](C)O3)cc1`, in the test on HSkMC, the cytotoxicity call is “inactive”. In the test with HepG2, the cytotoxicity call is “active”. Moreover, the growth inhibition call in the test with S. aureus RN4220 was “inactive”.
As to `C[C@@H]1CCCCO[C@@H](CN(C)S(=O)(=O)c2ccccc2)[C@H](C)CN([C@H](C)CO)C(=O)c2cc(NC(=O)Nc3ccc(F)cc3)ccc2O1`, the cytotoxicity call in the test with HSkMC and with HepG2 was “inactive” throughout. For the same compound, the growth inhibition call with S. aureus RN4220 is “inactive”.
As for `C[C@H]1CN([C@@H](C)CO)C(=O)Cc2cc(NC(=O)CCN3CCOCC3)ccc2O[C@H]1CN(C)CC1CC1`, the cytotoxicity call in the test with HSkMC and with HepG2 was “inactive” throughout. Besides, the growth inhibition call in the test on S. aureus RN4220 is “inactive”.
On to `C[C@H](CO)N1C[C@H](C)[C@H](CN(C)S(=O)(=O)c2cn(C)cn2)Oc2ncc(-c3cccc(C(F)(F)F)c3)cc2C1=O`, for which, in the test on HSkMC, the cytotoxicity call was “inactive”. For the same compound, in the test with HepG2, the cytotoxicity call is “active”. Further, the growth inhibition call in the test with S. aureus RN4220 was “inactive”.
In the case of `COCCOC(=O)N1C(=O)[C@@]2(c3cc(C#CCCO)ccc31)[C@H](C(=O)Nc1nc3ccccc3s1)[C@H]1C(=O)O[C@H](c3ccccc3)[C@H](c3ccccc3)N1[C@@H]2c1ccc(O)cc1`, the cytotoxicity call in the test on HSkMC and with HepG2 was “inactive” in each case. Moreover, the growth inhibition call with S. aureus RN4220 is “inactive”.
As for `C[C@H](CO)N1C[C@H](C)[C@H](CN(C)S(C)(=O)=O)Oc2ccc(NC(=O)Nc3ccccc3)cc2CC1=O`, in the test on HSkMC, the cytotoxicity call was “active”. The cytotoxicity call in the test on HepG2 was “inactive”. Also, in the test on S. aureus RN4220, the growth inhibition call is “inactive”.
As for `C[C@@H]1CN([C@H](C)CO)C(=O)c2cc(NC(=O)Nc3ccc(F)cc3)ccc2O[C@@H](C)CCCCO[C@H]1CN(C)Cc1ccc(C(F)(F)F)cc1`, the cytotoxicity call in the test with HSkMC and with HepG2 was “active” throughout. Further, the growth inhibition call with S. aureus RN4220 is “inactive”.
`C[C@@H]1CN([C@H](C)CO)C(=O)c2cccc(NC(=O)Nc3ccc(F)cc3)c2O[C@H]1CN(C)Cc1ccc(Cl)c(Cl)c1`: in the test with HSkMC, the cytotoxicity call is “active”. In addition, in the test with HepG2, the cytotoxicity call was “inactive”. For the same compound, the growth inhibition call in the test with S. aureus RN4220 is “inactive”.
Regarding `Cc1cc(OCCCS(C)(=O)=O)cc(C)c1-c1cccc(COc2ccc3c(c2)OC[C@H]3CC(=O)O)c1`, the cytotoxicity call in the test on HSkMC and in the test on HepG2 was “active” throughout. The growth inhibition call in the test with S. aureus RN4220 is “active”.
With `C[C@H](CO)N1C[C@H](C)[C@@H](CN(C)CC2CCCCC2)OCCCC[C@H](C)Oc2ccc(NC(=O)CCC(F)(F)F)cc2C1=O`, the cytotoxicity call with HSkMC and in the test with HepG2 was “inactive” in each case. For the same compound, in the test on S. aureus RN4220, the growth inhibition call was “inactive”.
Turning to `Cc1noc(C)c1NC(=O)N(C)C[C@@H]1Oc2ncc(C#CCC(C)C)cc2C(=O)N([C@@H](C)CO)C[C@H]1C`, the cytotoxicity call in the test with HSkMC and with HepG2 was “inactive” throughout. Moreover, in the test with S. aureus RN4220, the growth inhibition call is “inactive”.
As for `C[C@@H]1CN([C@@H](C)CO)C(=O)c2cccc(NC(=O)C3CCOCC3)c2O[C@@H]1CN(C)Cc1ccc(Oc2ccccc2)cc1`, the cytotoxicity call in the test on HSkMC and in the test on HepG2 was “inactive” each time. Besides, the growth inhibition call in the test with S. aureus RN4220 is “inactive”.
For the compound `C[C@@H]1CN([C@@H](C)CO)C(=O)Cc2cc(NC(=O)Cn3cnnn3)ccc2O[C@H]1CN(C)S(=O)(=O)c1ccc(Cl)cc1`, the cytotoxicity call in the test with HSkMC and in the test with HepG2 was “inactive” in each case. Further, the growth inhibition call in the test with S. aureus RN4220 is “inactive”.
On to `O=C(C[C@@H]1C[C@@H]2c3cc(NC(=O)Cc4ccncc4)ccc3O[C@@H]2[C@H](CO)O1)NCc1cc(F)ccc1F`, for which the cytotoxicity call in the test on HSkMC and in the test with HepG2 was “inactive” in each case. In addition, the growth inhibition call with S. aureus RN4220 is “inactive”.
Regarding `C[C@H](CO)N1C[C@H](C)[C@@H](CN(C)S(=O)(=O)c2ccccc2)Oc2ncc(C#Cc3ccccc3F)cc2C1=O`, the cytotoxicity call in the test on HSkMC and in the test with HepG2 was “inactive” throughout. Moreover, in the test with S. aureus RN4220, the growth inhibition call was “inactive”.
For `C[C@H](CO)N1C[C@H](C)[C@H](CN(C)S(=O)(=O)c2ccccc2)Oc2c(NC(=O)Nc3cccc4ccccc34)cccc2C1=O`, the cytotoxicity call in the test with HSkMC and in the test with HepG2 was “inactive” each time. Besides, the growth inhibition call in the test on S. aureus RN4220 is “inactive”.
On to `C[C@@H]1CCCCO[C@@H](CN(C)C(=O)C2CCCCC2)[C@@H](C)CN([C@H](C)CO)C(=O)c2cc(NC(=O)Nc3ccc4c(c3)OCO4)ccc2O1`, for which the cytotoxicity call in the test with HSkMC and with HepG2 was “inactive” in each case. In the test on S. aureus RN4220, the growth inhibition call is “inactive”.
Turning to `COc1ccc(S(=O)(=O)N(C)C[C@@H]2OCCCC[C@@H](C)Oc3ccc(NC(=O)CCC(F)(F)F)cc3C(=O)N([C@H](C)CO)C[C@H]2C)cc1`, the cytotoxicity call in the test with HSkMC and with HepG2 was “inactive” in each case. Further, the growth inhibition call in the test with S. aureus RN4220 is “inactive”.
Turning to `C[C@H](CO)N1C[C@H](C)[C@H](CN(C)Cc2ccc(C(=O)O)cc2)Oc2c(NC(=O)C3CC3)cccc2C1=O`, the cytotoxicity call in the test with HSkMC and in the test with HepG2 was “inactive” each time. In the test on S. aureus RN4220, the growth inhibition call was “inactive”.
As to `CC(=O)Oc1cc2c(c(C)c1OC(C)=O)CC=C1[C@@]2(C)CC[C@@]2(C)[C@H]3C[C@](C)(C(=O)O)CC[C@]3(C)CC[C@]12C`, the cytotoxicity call in the test on HSkMC and in the test with HepG2 was “active” each time. Further, the growth inhibition call in the test on S. aureus RN4220 was “active”.
`Cc1ccc(S[C@]2(C(=O)NCCN3CCOCC3)CC(=O)N(C(C)C)[C@@H]2c2ccc(CO)cc2)cc1`: the cytotoxicity call in the test on HSkMC and with HepG2 was “inactive” each time. Moreover, the growth inhibition call in the test on S. aureus RN4220 was “inactive”.
With `COc1ccc(S(=O)(=O)N(C)C[C@H]2OCCCC[C@H](C)Oc3ccc(NS(=O)(=O)c4cn(C)cn4)cc3C(=O)N([C@H](C)CO)C[C@@H]2C)cc1`, the cytotoxicity call with HSkMC and with HepG2 was “inactive” in each case. Moreover, the growth inhibition call in the test with S. aureus RN4220 was “inactive”.
Turning to `COc1ccc([Si](C)(C)[C@@H]2[C@@H](CCn3cc(CCO)nn3)O[C@]3(C(=O)N(Cc4cccc(N5C(=O)c6cccc7cccc5c67)c4)c4ccccc43)[C@H]2C)cc1`, the cytotoxicity call with HSkMC and in the test on HepG2 was “active” in each case. Besides, in the test with S. aureus RN4220, the growth inhibition call was “inactive”.
With `COc1ccc(CN(C)C[C@@H]2Oc3ccc(NC(=O)C4CC4)cc3CC(=O)N([C@H](C)CO)C[C@@H]2C)cc1`, the cytotoxicity call with HSkMC and in the test with HepG2 was “inactive” in each case. Besides, the growth inhibition call in the test with S. aureus RN4220 is “inactive”.
In the case of `C[C@@H]1CN([C@H](C)CO)C(=O)Cc2cc(NS(=O)(=O)c3cn(C)cn3)ccc2O[C@@H]1CN(C)S(=O)(=O)c1ccccc1`, the cytotoxicity call in the test with HSkMC and in the test with HepG2 was “inactive” throughout. Besides, the growth inhibition call in the test with S. aureus RN4220 is “inactive”.
As for `C[C@@H]1CCCCO[C@@H](CN(C)C(=O)Nc2ccccc2)[C@H](C)CN([C@@H](C)CO)C(=O)c2cc(NC(=O)Cc3ccccc3)ccc2O1`, the cytotoxicity call in the test on HSkMC (human skeletal muscle cells) and in the test with HepG2 was “inactive” each time. For the same compound, the growth inhibition call in the test with S. aureus RN4220 is “inactive”.
